Measured values as given in PubChem BioAssay AID504832 (National Center for Advancing Translational Sciences (NCATS), 2011).
In all, about 310,000 compounds went through this assay and about 18,000 (5.8%) were called active. This list was built around the results that the source calls inconclusive (neither active nor inactive); the mix of calls is not that of the screen. Calls come from the whole dose curve; as a rule, active = well fitted inhibition curve with a large enough effect; inconclusive = small, poorly fitted or top-dose-only effect, or another doubt; inactive = no such curve, though single readings can be large or run the other way. No potency is given beside an inconclusive call; the fits are too rough.

Experiment: Primary qHTS for delayed death inhibitors of the malarial parasite plastid, 48 hour incubation
Conditions: P. falciparum luciferase growth in erythrocytes; series mostly up to 28.7 µM; activity change, negative = inhibition: at the top concentration
How it was run: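 A one-generation exposure of luciferase-tagged malaria parasites in RPMI 1640/Albumax erythrocyte culture, 37 C and 5% CO2. Inhibition is inferred from decreased luminescence after adding detection reagent.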
% is set by controls: 0 for no effect and ±100 for the full control effect; potency is the fitted concentration of half-maximal effect; tags give direction and shape of the fitted curve.

| Structure (SMILES) | activity change, negative = inhibition | Potency |
| --- | --- | --- |
| O=C(Nc1ncc(Cc2cccc(Cl)c2)s1)C1CCCO1 (stereo not given) | inactive: 111% | – |
| COc1ccc(Br)cc1CN(C)CC(=O)Nc1cc([N+](=O)[O-])ccc1OC | – | inconclusive [inhibitor, single point] |
| CC(=O)C1CCC2C3CCC4CC(O)CCC4(C)C3CCC12C (stereo not given) | – | inconclusive [inhibitor, single point] |
| CCCc1cc(=O)oc2cc(C)cc(OCC(=O)NCc3ccncc3)c12 | – | active: 9.28 µM |
| CN(C)S(=O)(=O)N1CCC(n2nccc2NC(=O)CCCc2ccccc2)CC1 | – | inconclusive [inhibitor, partial curve, poor fit] |
| Nc1nc2nccc(-c3cccnc3)n2n1 | – | inconclusive [inhibitor, single point] |
| Cc1cc2nc(-c3ccccn3)c(-c3ccccn3)nc2cc1C | inactive: 65.5% | – |
| COc1ccc(Cl)cc1N(CC(=O)NC(C)(C)C)S(=O)(=O)c1ccc(C)c([N+](=O)[O-])c1 | – | inconclusive [inhibitor, partial curve, poor fit] |
| CC(=O)c1ccc(S(=O)(=O)N2CCN(CCOc3ccc(Br)cc3)CC2)cc1 | – | inconclusive [inhibitor, single point] |
| CCN(C(=O)C1CCN(c2nc(-c3ccc(OC)cc3)no2)CC1)c1ccccc1 | – | inconclusive [inhibitor, partial curve] |
| CCN(CC)CCN=Cc1c(O)n(Cc2ccccc2)c(=O)[nH]c1=O | inactive: 17.5% | – |
| O=S(=O)(Nc1ccc2c(c1)OCCO2)c1cccs1 | – | inconclusive [inhibitor, single point] |
| Cc1ccccc1N(Cc1cc(=O)[nH]c2ccccc12)C(=O)C(C)C | – | active: 14.7 µM |
| Cc1ccc(-c2cc(-c3ccc(C)o3)nc(N)c2C#N)cc1 | – | inconclusive [inhibitor, partial curve] |
| Cc1ccccc1NC(=O)CSc1nnc(-c2ccoc2C)n1CCc1ccccc1 | – | inconclusive [inhibitor, single point] |
| Cc1ccc([N+](=O)[O-])cc1NC(=S)NC(=O)c1cccs1 | inactive: 33.5% | – |
| COc1ccccc1-c1nnc(SCC(=O)N2CC(C)CC(C)C2)o1 (stereo not given) | – | inconclusive [inhibitor, single point] |
| Cc1ccc2c(CN3C(=O)NC(C)(c4ccc5c(c4)OCO5)C3=O)cc(=O)oc2c1 (stereo not given) | – | active: 4.15 µM |
| Cc1ccc2cc(CCNC(=O)c3ccc(S(=O)(=O)N4CCOCC4)cc3)c(=O)[nH]c2c1 | – | inconclusive [inhibitor, single point] |
| Cc1nnc2sc(-c3ccncc3)nn12 | – | inconclusive [inhibitor, full curve, poor fit] |
| Cc1ccc(C(=O)N(CCN(C)C)CC2CCCN(Cc3ccccc3F)C2)cc1C (stereo not given) | – | inconclusive [inhibitor, partial curve] |
| CC(=O)c1ccc(N2CCN(CC(O)COC(c3ccccc3)c3ccccc3)CC2)cc1 (stereo not given) | – | inconclusive [inhibitor, full curve, poor fit] |

| Structure (SMILES) | activity change, negative = inhibition | Potency |
| --- | --- | --- |
| CCn1cnc2c1c(=O)n(Cc1csc(-c3ccccc3)n1)c(=O)n2Cc1ccccc1 | – | inconclusive [inhibitor, partial curve] |
| COC(=O)c1c(NC(=O)CSc2nnc(-c3ccco3)n2C)sc(C)c1C | – | inconclusive [inhibitor, partial curve] |
| COc1ccc(/C(O)=C2\C(=O)C(=O)N(Cc3ccco3)C2c2cc(OC)ccc2OC)cc1 (stereo not given) | – | inconclusive [inhibitor, partial curve] |
| O=C(c1ccc(S(=O)(=O)N2CCCCCC2)cc1)N1CCN(c2ccccc2)CC1 | – | inconclusive [inhibitor, single point] |
| O=C(O)CN1C(=O)/C(=C\c2cc(Br)ccc2OCc2ccccc2F)SC1=S | inactive: 1.42% | – |
| COc1ccc(NC(=O)CSc2nc3ccccc3c3nc4ccccc4n23)cc1 | inactive: 18.8% | – |
| O=C(c1ccc(Cl)cc1Cl)N1CCSCC1 | – | inconclusive [inhibitor, partial curve, poor fit] |
| Cc1cccc(NC(=O)CN2CCN(C(=O)c3ccc(OCc4cn5ccccc5n4)cc3)CC2)c1C | – | inconclusive [inhibitor, partial curve, poor fit] |
| CC(C)CCNC(=O)Cc1ccc(Nc2nc(=S)[nH]c3ccccc23)cc1 | – | inconclusive [inhibitor, partial curve, poor fit] |
| O=C(c1ccc(S(=O)(=O)N2CCCCC2)cc1)N1CCCc2ccccc21 | – | inconclusive [inhibitor, partial curve, poor fit] |
| COc1cc2ccccc2cc1C(=O)NNC(=O)c1ccccc1O | – | inconclusive [inhibitor, single point] |
| CC(C)OP(=O)(OC(C)C)/C(C=O)=N\Nc1ccc([N+](=O)[O-])cc1 | – | inconclusive [inhibitor, single point] |
| COc1ccc(CN2CCCC(CNC(=O)c3ccc(F)cc3)C2)c(C)c1C (stereo not given) | inactive: -16.6% | – |
| CCn1cc(/C=C(\NC(=O)c2ccc(OC)cc2)C(=O)N2CCOCC2)c2ccccc21 | – | inconclusive [inhibitor, full curve, poor fit] |
| COCCn1cnc2c1c(=O)n(Cc1cc(C(C)=O)ccc1OC)c(=O)n2Cc1ccccc1 | – | inconclusive [inhibitor, single point] |
| CCc1cc(=O)oc2c(C)c(OCC(=O)NCCCN3CCCC3=O)ccc12 | – | inconclusive [inhibitor, single point] |
| Clc1ccc(-c2c[n+](Cc3ccc(Cl)c(Cl)c3)c3n2CCC3)cc1 | – | inconclusive [inhibitor, full curve, poor fit] |
| CCO[C@H]1OC(C(=O)NCc2ccccc2)=C[C@@H](C2CC2)[C@@H]1CCCO | – | inconclusive [inhibitor, partial curve, poor fit] |
| CC(C)(C)OC(=O)N1Cc2ccccc2C[C@H]1C(=O)NCC(=O)NC1CCCCC1 | – | inconclusive [inhibitor, single point] |
| COC(=O)c1ccc(CNCC(O)COc2ccc(-c3ccccc3)cc2)cc1 (stereo not given) | – | inconclusive [inhibitor, single point] |
| Cc1cccc(NC(=O)CNC(=O)C23CC4CC(CC(Cl)(C4)C2)C3)n1 | – | inconclusive [inhibitor, single point] |
| COC(=O)CN1C(=S)N(c2ccc(OC)cc2)C(=O)/C1=C/c1ccc(OC)cc1 | – | active: 11.7 µM |

| Structure (SMILES) | activity change, negative = inhibition | Potency |
| --- | --- | --- |
| CCOC(=O)c1ccccc1NC(=O)Cc1ccccc1OC | – | inconclusive [inhibitor, partial curve, poor fit] |
| CCC1(C)Cc2ccccc2/C(=C/C(=O)N2CCCCC2)N1 (stereo not given) | – | inconclusive [inhibitor, single point] |
| Cc1c(Cl)c(C(F)F)nn1CC(=O)NC1C(=O)N2C(C(=O)O)=C(CSc3nnnn3C)CSC12 (stereo not given) | inactive: -1.41% | – |
| NC(=O)C1CCN(c2nc(-c3ccc(Br)cc3)cs2)CC1 | – | inconclusive [inhibitor, single point] |
| O=S(=O)(c1cccc2cccnc12)N1CCN(Cc2ccccc2)CC1 | inactive: 8.83% | – |
| O=C(O)[C@@H]1Cc2ccccc2N1 | – | inconclusive [inhibitor, partial curve] |
| Cc1nc(SCC(=O)N(CC(C)C)C2CCS(=O)(=O)C2)c2ccccc2n1 (stereo not given) | – | inconclusive [inhibitor, single point] |
| Cc1ccc2c(c1)CCCN2C(=O)c1cc(C)on1 | inactive: 6.17% | – |
| CCN(CC(=O)Nc1ccc(NC(C)=O)cc1)C(=O)Cc1coc2cc(C)c(C)cc12 | – | inconclusive [inhibitor, single point] |
| COc1ccccc1CNC(=O)C1CCN(S(=O)(=O)c2cccc3nonc23)CC1 | – | inconclusive [inhibitor, partial curve, poor fit] |
| CC(c1ccccc1)c1nnc(NC(=O)c2ccc3c(c2)OCO3)s1 (stereo not given) | – | inconclusive [inhibitor, single point] |
| Cc1c(C(=O)N2CCOCC2)sc(NC(=O)CCl)c1C#N | – | active: 2.08 µM |
| COc1cc(C(=O)Nc2cc(C(F)(F)F)ccc2N2CCOCC2)ccc1OCC(=O)N1CCOCC1 | – | inconclusive [inhibitor, single point] |
| CN1CCN(C(=O)COc2ccc(S(=O)(=O)NC3CCCCC3)cc2Cl)CC1 | – | inconclusive [inhibitor, partial curve] |
| O=C(CN1C(=O)NC2(CCc3ccccc32)C1=O)NCC(=O)Nc1ccc(F)cc1 (stereo not given) | – | inconclusive [inhibitor, single point] |
| CCSc1nc(=S)cc(C)[nH]1 | – | inconclusive [inhibitor, partial curve] |
| CCn1c(=O)c([N+](=O)[O-])c(NCCc2ccccc2)c2ccccc21 | – | inconclusive [inhibitor, single point] |
| CC1CCCCN1C(=O)CCNC(=O)Cn1cnc2ccccc2c1=O (stereo not given) | inactive: 7.25% | – |
| CCOC(=O)NC(O)C(=O)c1cccs1 (stereo not given) | inactive: 7.96% | – |
| CCCCN(C)CCN1C(=O)C2C(C(=O)Nc3ccc(C)cc3)C3C=CC2(O3)C1C(=O)NC1CCCCC1 (stereo not given) | – | inconclusive [inhibitor, partial curve] |
| Cc1cccc(S(=O)(=O)Nc2ccc(-c3ccc4nncn4n3)cc2)c1 | – | inconclusive [inhibitor, partial curve, poor fit] |
